In one assay the target is ErbB3 on NCI-ADRr cells (UniProt P21860 20-1342, limits assumed). Nature of the assay: cell-based or functional assay.
For assay [1], the target named is ErbB2 on OVCAR8 and OVCAR8-HER2 cells (UniProt P04626). Nature of the assay: cell-based or functional assay.
The target in another assay is T1, ErbB2 (UniProt P04626 fragment, limits assumed).
T1 construct: also called E2; HER2
Nature of the assay: BIACore and KinExA; B1D2 single chain arm binding ErbB2. A general note: SPR reads the build-up and loss of mass on a sensor chip optically.

Another assay addresses T2, ErbB3 (UniProt P21860 fragment, limits assumed).
T2 construct: Elsewhere it speaks of the ectodomain of human ErbB3; also called E3; HER3
Nature of the assay: BIACore and KinExA; H3 single chain arm binding ErbB3.

B1: bispecific antibody H3×B1D2 (bispecific antibody)
chain: QVQLQESGGGLVKPGGSLRLSCAASGFTFSSYWMSWVRQAPGKGLEWVANINRDGSASYYVDSVKGRFTISRDDAKNSLYLQMNSLRAEDTAVYYCARDRGVGYFDLWGRGTLVTVSSASTGGGGSGGGGSGGGGSQSALTQPASVSGSPGQSITISCTGTSSDVGGYNFVSWYQQHPGKAPKLMIYDVSDRPSGVSDRFSGSKSGNTASLIISGLQADDEADYYCSSYGSSSTHVIFGGGTKVTVLGAAS[about 600 residues skipped]AAALQVQLVQSGAEVKKPGESLKISCKGSGYSFTSYWIAWVRQMPGKGLEYMGLIYPGDSDTKYSPSFQGQVTISVDKSVSTAYLQWSSLKPSDSAVYFCARHDVGYCTDRTCAKWPEWLGVWGQGTLVTVSSGGGGSSGGGSGGGGSQSVLTQPPSVSAAPGQKVTISCSGSSSNIGNNYVSWYQQLPGTAPKLLIYDHTNRPAGVPDRFSGSKSGTSASLAISGFRSEDEADYYCASWDYTLSGWVFGGGTKLTVLG
notes: The rate constants are told for each single chain arm of the bispecific; also called H3 x B1D2; anti-ErbB3×anti-ErbB2 bispecific antibody
With B1, in the assay with ErbB3 on NCI-ADRr cells, the “IC50 (printed as DR50data) of inhibition of HRG-induced pErbB3, ELISA, ADrR cells, 5 nM HRG, lysis at 10 min” value came to 9.4e-09 M. For the same molecule, the “IC50 (printed as DR50data) of inhibition of HRG-induced pErbB3, ELISA, OVCAR8 cells, 5 nM HRG, lysis at 10 min” value in assay [1] was determined as 1.7e-09 M. Besides, the koff (in general, the rate constant with which the complex falls apart) with ErbB2 was 0.00015 s⁻¹. In the assay with ErbB3, the dissociation rate constant (koff) is 0.022 s⁻¹ and the kon – broadly, the rate constant with which the complex forms – turned out to be 350000 M⁻¹ s⁻¹.

Values taken from patent publication US20110027291A1 (MERRIMACK PHARMACEUTICALS, published 2011).
